Experimental data as given in patent US20120052069A1 (Amgen, published 2012).

target: β-Klotho overexpressed in recombinant human 293T kidney cells; experiment: cell-based or functional assay

| Binder | EC50 (nM), ELK luciferase assay [nM] | Efficacy, ELK luciferase assay [%] |
| --- | --- | --- |
| hFc-(L15)-hFGF21(L98R, P171G, GG182-3) (Fc fusion) [letters of human IgG1 Fc left out]GGGGGSGGGSGGGGSHPIPDSSPLLQFGGQVRQRYLYTDDAQQTEAHLEIREDGTVGGAADQSPESLLQLKALKPGVIQILGVKTSRFLCQRPDGALYGSLHFDPEACSFRERLLEDGYNVYQSEAHGLPLHLPGNKSPHRDPAPRGPARFLPLPGLPPAPPEPPGILAPQPPDVGSSDPLSMVGGSQGRSPSYASGG | 1940 | 84.2 |
| Fc-(L15)-FGF21 (L98R, P171G) (Fc fusion) [letters of human IgG1 Fc left out]GGGGGSGGGSGGGGSHPIPDSSPLLQFGGQVRQRYLYTDDAQQTEAHLEIREDGTVGGAADQSPESLLQLKALKPGVIQILGVKTSRFLCQRPDGALYGSLHFDPEACSFRERLLEDGYNVYQSEAHGLPLHLPGNKSPHRDPAPRGPARFLPLPGLPPAPPEPPGILAPQPPDVGSSDPLSMVGGSQGRSPSYAS | 2.5 | 76.1 |
| hFc-(L15)-hFGF21(L98R, P171G, Y179S) (Fc fusion) [letters of human IgG1 Fc left out]GGGGGSGGGSGGGGSHPIPDSSPLLQFGGQVRQRYLYTDDAQQTEAHLEIREDGTVGGAADQSPESLLQLKALKPGVIQILGVKTSRFLCQRPDGALYGSLHFDPEACSFRERLLEDGYNVYQSEAHGLPLHLPGNKSPHRDPAPRGPARFLPLPGLPPAPPEPPGILAPQPPDVGSSDPLSMVGGSQGRSPSSAS | 25.3 | 74.8 |
| Fc-(L15)-FGF21 (L98R, P171G, A180E) (Fc fusion) [letters of human IgG1 Fc left out]GGGGGSGGGSGGGGSHPIPDSSPLLQFGGQVRQRYLYTDDAQQTEAHLEIREDGTVGGAADQSPESLLQLKALKPGVIQILGVKTSRFLCQRPDGALYGSLHFDPEACSFRERLLEDGYNVYQSEAHGLPLHLPGNKSPHRDPAPRGPARFLPLPGLPPAPPEPPGILAPQPPDVGSSDPLSMVGGSQGRSPSYES | 1.9 | 79.6 |
| hFc-(L15)-hFGF21(L98R, P171G, A180G) (Fc fusion) [letters of human IgG1 Fc left out]GGGGGSGGGSGGGGSHPIPDSSPLLQFGGQVRQRYLYTDDAQQTEAHLEIREDGTVGGAADQSPESLLQLKALKPGVIQILGVKTSRFLCQRPDGALYGSLHFDPEACSFRERLLEDGYNVYQSEAHGLPLHLPGNKSPHRDPAPRGPARFLPLPGLPPAPPEPPGILAPQPPDVGSSDPLSMVGGSQGRSPSYGS | 3.25 | 76.9 |
| hFc-(L15)-hFGF21(L98R, P171G, A180S) (Fc fusion) [letters of human IgG1 Fc left out]GGGGGSGGGSGGGGSHPIPDSSPLLQFGGQVRQRYLYTDDAQQTEAHLEIREDGTVGGAADQSPESLLQLKALKPGVIQILGVKTSRFLCQRPDGALYGSLHFDPEACSFRERLLEDGYNVYQSEAHGLPLHLPGNKSPHRDPAPRGPARFLPLPGLPPAPPEPPGILAPQPPDVGSSDPLSMVGGSQGRSPSYSS | 2.18 | 84.7 |
| hFc-(L15)-hFGF21(L98R, P171G, Y179A) (Fc fusion) [letters of human IgG1 Fc left out]GGGGGSGGGSGGGGSHPIPDSSPLLQFGGQVRQRYLYTDDAQQTEAHLEIREDGTVGGAADQSPESLLQLKALKPGVIQILGVKTSRFLCQRPDGALYGSLHFDPEACSFRERLLEDGYNVYQSEAHGLPLHLPGNKSPHRDPAPRGPARFLPLPGLPPAPPEPPGILAPQPPDVGSSDPLSMVGGSQGRSPSAAS | 43.2 | 79.6 |
| hFc-(L15)-hFGF21(L98R, P171G, Y179F) (Fc fusion) [letters of human IgG1 Fc left out]GGGGGSGGGSGGGGSHPIPDSSPLLQFGGQVRQRYLYTDDAQQTEAHLEIREDGTVGGAADQSPESLLQLKALKPGVIQILGVKTSRFLCQRPDGALYGSLHFDPEACSFRERLLEDGYNVYQSEAHGLPLHLPGNKSPHRDPAPRGPARFLPLPGLPPAPPEPPGILAPQPPDVGSSDPLSMVGGSQGRSPSFAS | 2.6 | 78.3 |
| hFc-(L15)-hFGF21(L98R, P171G, P182) (Fc fusion) [letters of human IgG1 Fc left out]GGGGGSGGGSGGGGSHPIPDSSPLLQFGGQVRQRYLYTDDAQQTEAHLEIREDGTVGGAADQSPESLLQLKALKPGVIQILGVKTSRFLCQRPDGALYGSLHFDPEACSFRERLLEDGYNVYQSEAHGLPLHLPGNKSPHRDPAPRGPARFLPLPGLPPAPPEPPGILAPQPPDVGSSDPLSMVGGSQGRSPSYASP | 6.1 | 85.9 |
| hFc-(L15)-hFGF21(L98R, P171G, G182) (Fc fusion) [letters of human IgG1 Fc left out]GGGGGSGGGSGGGGSHPIPDSSPLLQFGGQVRQRYLYTDDAQQTEAHLEIREDGTVGGAADQSPESLLQLKALKPGVIQILGVKTSRFLCQRPDGALYGSLHFDPEACSFRERLLEDGYNVYQSEAHGLPLHLPGNKSPHRDPAPRGPARFLPLPGLPPAPPEPPGILAPQPPDVGSSDPLSMVGGSQGRSPSYASG | 6.5 | 71.1 |
